According to PubChem BioAssay AID686979 (National Center for Advancing Translational Sciences (NCATS), 2013):
The whole screen tested about 420,000 compounds, of which about 50,000 (12%) were called active. This list was built around the results that the source calls inconclusive (neither active nor inactive); the mix of calls is not that of the screen. Calls follow the shape of the dose curve; as a rule, active = well fitted inhibition curve with a large enough effect; inconclusive = small, poorly fitted or top-dose-only effect; inactive = flat fitted curve, though single readings scatter. No potency is given beside an inconclusive call; the fits are too rough.

test: qHTS for Inhibitors of human tyrosyl-DNA phosphodiesterase 1 (TDP1): qHTS in cells in presence of CPT; details: chicken DT40 Tdp1-/-;hTDP1 cells + 20 nM CPT, ATP luminescence, 48 h; activity change, negative = growth inhibition: at 46.2 µM (top of the series) unless noted; also: nearly all actives have a fitted effect of over 55% in size
Summary of the method: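 Cell growth measured by CellTiter-Glo luminescence after a minimum 48 h, 37 C compound exposure with 20 nM CPT in Tdp1-knockout DT40 cells stably expressing hTDP1, seeded 400/well; qHTS titration format.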
% is scaled to controls: 0 for no effect and ±100 for the full control effect; potency is read from the fitted curve at half-maximal effect; tags tell the direction and shape of the fitted curve.

For Cc1ccc(C(=O)c2c(C)oc3c2C(=O)C(=O)c2ccccc2-3)cc1, which Potency is on record?
The Potency was active: 2.06 µM.

For O=C(c1ccc(Cl)c(S(=O)(=O)N2CCCC2)c1)N1CCCCC1, which “activity change, negative = growth inhibition” value is on record?
The value was inactive: -17.7%.

For Cc1cc(C(=O)CN2C(=O)NC3(CCCCC3)C2=O)c(C)n1Cc1ccco1, which Potency is on record?
Its Potency is inconclusive [inhibitor, single point].

Which “activity change, negative = growth inhibition” value does the source give for CCN(CC)S(=O)(=O)N1CCC(C(=O)NCc2ccco2)CC1 here?
Its value is inactive: -0.684%.

With CNC(=O)c1cc(C(=O)c2ccc(F)cc2C(F)(F)F)c[nH]1 as the compound, how does the Potency read?
Its Potency is inconclusive [inhibitor, partial curve].

With COc1ccc(-n2nnnc2C(c2ccccc2)N2CCN(C/C=C/c3ccccc3)CC2)cc1 (stereo not drawn) as the compound, how does the Potency read?
The Potency was active: 20.6 µM.

With CCCCNC(=O)C1(C)CCN1C(=O)c1ccccc1Br (stereo not drawn) as the compound, how does the “activity change, negative = growth inhibition” value read?
Its value is inactive: -1.4%.

Which Potency does the source give for O=C1CN(c2nc(-c3cccs3)nc3sc4c(c23)CCCC4)CCN1 here?
The Potency was inconclusive [inhibitor, single point].

With CCOC(=O)N1CCN(C(=O)CCc2ccc(S(=O)(=O)NCCc3ccccc3)cc2)CC1 as the compound, how does the activity change, negative = growth inhibition read?
Its activity change, negative = growth inhibition is inconclusive: -33.3% [inhibitor].

Which Potency does the source give for CSc1ccc(CCNC(=O)c2cc(-c3ccccc3)c(N3CCOCC3)s2)cc1 here?
The Potency was inconclusive [inhibitor, single point].

For CC(C)Oc1ccc(C(=O)Nc2nc3ccccc3[nH]2)cc1, which Potency is on record?
Its Potency is active: 18.4 µM.

For C=CCOc1c(Br)cc(/C=C2/C(=O)ON=C2C)cc1OC, which Potency is on record?
The Potency was inconclusive [inhibitor, partial curve, poor fit].

For COc1ccc(-n2c(=O)c3ccccc3n(CC(=O)NCCc3ccccc3)c2=O)c(OC)c1, which Potency is on record?
Its Potency is inconclusive [inhibitor, single point].

For CCC(C)NC(=O)Cc1c(C)c2cc3c(cc2oc1=O)OC(C)(C)CC3 (stereo not drawn), which Potency is on record?
Its Potency is inconclusive [inhibitor, single point].

With Cc1cc(N2C(=O)C3C4CCC(C4)C3C2=O)no1 (stereo not drawn) as the compound, how does the “activity change, negative = growth inhibition” value read?
Its value is inactive: 34.8%.

Which “activity change, negative = growth inhibition” value does the source give for COC(=O)c1cc(=O)c2c(C)nc(C(Cl)(Cl)Cl)nc2[nH]1 here?
Its value is inactive: -2.58%.

With Cc1cc2c(cc1C)NC(CC(=O)NCc1ccccc1)C(=O)N2 (stereo not drawn) as the compound, how does the Potency read?
The Potency was inconclusive [inhibitor, full curve, poor fit].

With COc1ccc(C(OC(=O)c2ccco2)C(=O)NC2CCCCC2)cc1OC (stereo not drawn) as the compound, how does the “activity change, negative = growth inhibition” value read?
The value was inactive: -18.7%.

With Cc1ccsc1/C=N/NC(=O)CC(=O)NCC(C)C as the compound, how does the “activity change, negative = growth inhibition” value read?
The value was inactive: -17.5%.

For CC[C@H](C)[C@H]1CNC(=S)N1CC1CCN(CCCCc2ccccc2)CC1, which “activity change, negative = growth inhibition” value is on record?
The value was inactive: -5.69%.

Which Potency does the source give for COc1ccc(/C=N\NS(=O)(=O)c2ccc(C)cc2)cc1COc1ccccc1[N+](=O)[O-] here?
Its Potency is inconclusive [inhibitor, single point].

With Cn1cc(/C=C2/SC(=O)N(c3ccccc3)C2=O)c2ccccc21 as the compound, how does the “activity change, negative = growth inhibition” value read?
Its value is inactive: -6.66%.

Which Potency does the source give for CC1=NN(c2ccc(Cl)cc2)C(=O)C1C(c1cccc(O)c1)c1c(C)[nH]n(-c2ccc(Cl)cc2)c1=O (stereo not drawn) here?
The Potency was inconclusive [inhibitor, single point].

Which “activity change, negative = growth inhibition” value does the source give for O=C1NC2(CCCCC2)N=C1c1ccc(Br)cc1 here?
The value was inactive: -17.5%.

Which Potency does the source give for CS(=O)(=O)N(CC(=O)Nc1ccccc1Sc1ccccc1)c1cccc(Br)c1 here?
Its Potency is inconclusive [inhibitor, single point].

Which “activity change, negative = growth inhibition” value does the source give for Cc1cc(C)cc(NS(=O)(=O)c2c(C)[nH]c(=O)[nH]c2=O)c1 here?
The value was inactive: 7.05%.

Which Potency does the source give for O=C(CSc1nccn1-c1cccc(Cl)c1)Nc1cccc(C(F)(F)F)c1 here?
Its Potency is inconclusive [inhibitor, single point].

With O=C(NC(=O)N1CCN(c2cccc(Cl)c2)CC1)c1ccc(Cl)cc1 as the compound, how does the Potency read?
Its Potency is inconclusive [inhibitor, single point].

Which Potency does the source give for COc1ccc(S(=O)(=O)N2CCOCC2)cc1C(=O)NCc1c(C)nn(Cc2ccccc2)c1C here?
The Potency was inconclusive [inhibitor, single point].

Which Potency does the source give for CN(Cc1ccccc1)C(=O)CCS(=O)(=O)c1cc(Br)cc2c1N(C(=O)C1CC1)CC2 here?
Its Potency is active: 13 µM.

For Cc1nn2c3c(cnc2c1-c1ccccc1)C(=O)CC(c1ccccc1)C3 (stereo not drawn), which Potency is on record?
Its Potency is inconclusive [inhibitor, single point].

For Brc1ccc2c(ccc[n+]2CCc2ccccc2)c1, which Potency is on record?
Its Potency is inconclusive [inhibitor, single point].

For COC(=O)c1ccccc1NC(=O)CN(c1ccccc1OC)S(C)(=O)=O, which “activity change, negative = growth inhibition” value is on record?
The value was inactive: -1.61%.

With CCOC(=O)c1c(C)oc2ccc(OCC(=O)N(CC)CC)cc12 as the compound, how does the Potency read?
The Potency was inconclusive [inhibitor, partial curve].

Which Potency does the source give for CC1CCN(c2nc3ccc(C(=O)NCCCN4CCCCC4C)cc3s2)CC1 (stereo not drawn) here?
Its Potency is inconclusive [inhibitor, single point].

For O=C(COc1ccccc1F)Nc1ccccc1OCc1cc(=O)n2ccccc2n1, which “activity change, negative = growth inhibition” value is on record?
Its value is inactive: 12.9%.

With COc1ccc(NC(=O)Nc2ccc(OC)cc2)cc1 as the compound, how does the “activity change, negative = growth inhibition” value read?
The value was inactive: -17.4%.

With Cc1ccc(CNC(=O)c2ccc(S(=O)(=O)Nc3c(C)n(C)n(-c4ccccc4)c3=O)cc2)cc1 as the compound, how does the Potency read?
The Potency was inconclusive [inhibitor, single point].

With O=C1CCC(C(=O)OCc2cc(=O)oc3ccc4ccccc4c23)=NN1 as the compound, how does the “activity change, negative = growth inhibition” value read?
Its value is inactive: -9.56%.

Which Potency does the source give for O=C(NCCc1ccc(F)cc1)Nc1ccccc1 here?
The Potency was inconclusive [inhibitor, single point].

Which activity change, negative = growth inhibition does the source give for Cc1ccc(N2CN=c3s/c(=C\c4ccccn4)c(=O)n3C2)cc1 here?
The activity change, negative = growth inhibition was inconclusive: -32.3% [inhibitor].

For Cc1ccc(-c2ccccc2C2=CC(=O)CC(C)(C)C2=O)cc1, which Potency is on record?
The Potency was inconclusive [inhibitor, single point].

For COc1ccc(-n2c(-c3ccc(Cl)cc3)c[n+]3c2CCc2ccccc2-3)cc1, which Potency is on record?
The Potency was active: 2.91 µM.

For COc1ccc(C(=O)N2CCC3(CC2)CCN(c2ncccn2)CC3)cc1, which “activity change, negative = growth inhibition” value is on record?
The value was inactive: 2.62%.

Which Potency does the source give for CC(C)c1ccc(NC(=O)c2ccc(F)c(S(=O)(=O)N3CCCC3)c2)cc1 here?
Its Potency is active: 10.3 µM.

For CC1CCN(C(=O)Cn2cc(SCc3ccccc3)c3ccccc32)CC1, which Potency is on record?
Its Potency is active: 20.6 µM.

Which Potency does the source give for O=C(NC1CCCCC1)c1n[nH]c2c1CC(c1ccccc1)CC2 (stereo not drawn) here?
Its Potency is inconclusive [inhibitor, single point].

With COc1cccc(-c2cnc3c(NC(C)=O)cc(-c4cccc(C(=O)NCCN(C)C)c4)cn23)c1 as the compound, how does the Potency read?
Its Potency is inconclusive [inhibitor, single point].
